Results reported in PubChem BioAssay AID686978 (National Center for Advancing Translational Sciences (NCATS), 2013).
Where “and” joins values, the source holds several entries; their conditions need not be identical. Equal values may be shown once. Among all 420,000 compounds or so, about 64,000 (15%) were called active. The shares of active, inactive and inconclusive entries below differ from those in the screen. The call rests on the fitted dose curve; in most records, active means well fitted inhibition curve with a large enough effect; inconclusive means small, poorly fitted or top-dose-only effect; inactive means flat fitted curve, though single readings scatter. A potency beside an inconclusive call is a rough fit, not a confirmed value. Where a structure was tested more than once in an assay, its records may differ in their call.

Assay: qHTS for Inhibitors of human tyrosyl-DNA phosphodiesterase 1 (TDP1): qHTS in cells in absence of CPT; further: nearly all actives have a fitted effect of over 55% in size
Details: DT40 Tdp1-/- hTDP1 cells, no CPT, ATP luminescence, 48 h; activity change, negative = growth inhibition: at 46.2 µM (top of the series) unless noted
In short: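 Seeded 400 DT40-hTDP1 cells/well (vehicle DMSO, no 20 nM CPT); pinned compounds; ≥48 hr at 37 °C; CellTiter-Glo luminescence as viability measure.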
On the % scale 0 is the no-effect control and ±100 the full control effect; potency means the concentration at half of the fitted maximal effect; tags describe the fitted curve by direction and shape.

| SMILES | Potency | activity change, negative = growth inhibition |
| --- | --- | --- |
| Cc1ccc2c(C)[nH]c(=O)cc2c1 | active: 7.31 µM |  |
| Clc1ccc(-c2csc(NNC3=NCCCCC3)n2)cc1 | active: 16.4 µM |  |
| Cc1ccc(S(=O)(=O)NC(CCc2ccccc2)CC(=O)C(C)(C)C)cc1 (stereo not given) | active: 16.4 µM |  |
| O=C(CNC(=O)C(c1ccccc1)c1ccccc1)N/N=C/c1ccc(O)cc1O | active: 6.51 µM |  |
| CCc1ccc(-n2c(=O)c3sc4ccccc4c3n(Cc3cccc(F)c3)c2=O)cc1 | inconclusive: 4.61 µM [inhibitor, full curve] |  |
| O=C(CC(O)(CC(=O)OCc1ccccc1)C(=O)OCc1ccccc1)OCc1ccccc1 | inconclusive: 29.1 µM [inhibitor, single point] |  |
| O=C1C=C(c2cccs2)CC(c2cccs2)C1n1cnc([N+](=O)[O-])c1 (stereo not given) | inconclusive: 23.1 µM [inhibitor, partial curve] |  |
| Nc1ncnc2c1ncn2[C@@H]1O[C@H](CNCc2ccc(OCC(=O)Nc3ccccn3)cc2)[C@@H](O)[C@H]1O |  | inactive: -22.3% |
| CCOC(=O)N1CCc2c(sc(NCc3ccc(OC)c(OC)c3OC)c2C(=O)Nc2ccc(OC)cc2OC)C1 | active: 16.4 µM |  |
| CCCC(=O)NCC(c1ccc2c(c1)OCO2)N1CCN(c2ccccc2)CC1 (stereo not given) | inconclusive: 14.6 µM [inhibitor, single point] |  |
| Cc1c(Cl)cccc1-n1c(SCC(=O)NCc2ccccc2Cl)nnc1-c1ccncc1 | inconclusive: 25.1 µM [inhibitor, single point] |  |
| O=C(CSc1cccc[n+]1[O-])c1ccc(-c2ccccc2)cc1 | active: 0.82 µM |  |
| COc1ccc(NS(=O)(=O)c2ccc(C(=O)NCC3(N4CCOCC4)CCCCC3)cc2)cc1 | inconclusive: 18.4 µM [inhibitor, partial curve] |  |
| COc1ccc(-c2csc(NC(=O)CSc3nc4ccccc4c(=O)[nH]3)n2)cc1 | inconclusive: 16.4 µM [inhibitor, partial curve, poor fit] |  |
| CCC(C)(C)NC(=O)C(c1ccccc1Cl)N(C(=O)CCC(=O)Nc1cc(C)on1)C(C)(C)C (stereo not given) | inconclusive: 23.1 µM [inhibitor, single point] |  |
| COc1ccccc1OCCNC(=O)CNC(=O)c1ccc(Cl)c(Cl)c1 | inconclusive: 23.1 µM [inhibitor, single point] |  |
| CCn1cnc2cc(NCc3cccs3)ccc21 |  | inactive: 2.96% |
| Cc1oc(C)c2c(=O)cc(-c3ccc4c(c3)OCO4)cc(OC(=O)c3ccccc3Cl)c12 | inconclusive: 29.1 µM [inhibitor, single point] |  |
| Cc1cccc(NC(=O)C2CCCN(C(=O)Nc3ccccc3)C2)c1C (stereo not given) |  | inactive: -15.8% |
| Brc1ccc(-c2c[n+]3c(n2-c2ccccc2)SCC3)cc1 | active: 5.8 µM |  |
| CN(C)c1ccc(C(=S)N2CCCC2)cc1Br | inconclusive: 20.6 µM [inhibitor, single point] |  |
| O=C(CCCc1nc2ccccc2s1)NC(c1ccccc1)c1ccccc1 | inconclusive: 4.61 µM [inhibitor, full curve] |  |
| CCCn1c(SCC(=O)Nc2ccc3c(c2)OCO3)nc2c1c(=O)n(C)c(=O)n2C |  | inactive: -30% |
| Cc1c(Cl)cccc1NC(=O)Cn1c(=O)nc(-c2ccccc2)c2ccccc21 | active: 16.4 µM |  |

| SMILES | Potency | activity change, negative = growth inhibition |
| --- | --- | --- |
| CC(=O)NO | active: 1.68 µM |  |
| Nc1nc2ccccc2n1CCOc1ccc(Br)cc1 | inconclusive: 25.9 µM [inhibitor, single point] |  |
| COc1ccccc1-c1nnc(C2CCN(S(=O)(=O)c3ccc([N+](=O)[O-])cc3)CC2)o1 | inconclusive: 23.1 µM [inhibitor, single point] |  |
| CCCN(C)C[C@H]1Oc2cc(C#Cc3ccc(F)cc3)ccc2S(=O)(=O)N([C@H](C)CO)C[C@@H]1C | inconclusive: 29.1 µM [inhibitor, single point] |  |
| COc1ccc(C2=NC(C)(C)Cc3cc(OC)c(OC)cc32)cc1 |  | inconclusive: -30.3% [inhibitor] |
| Cc1ccccc1-c1cccc(CN2CCc3nnc(C(C)NC(=O)c4cccnc4)n3CC2)c1 (stereo not given) |  | inactive: -5.02% |
| COc1ccc(C(c2c(C)[nH][nH]c2=O)c2c(C)[nH][nH]c2=O)cc1Br | inconclusive: 29.1 µM [inhibitor, single point] |  |
| Cc1cc(C(=O)COC(=O)c2ccc(O)cc2)c(C)n1CC1COc2ccccc2O1 (stereo not given) | inconclusive: 29.1 µM [inhibitor, single point] |  |
| Cc1ccc(S(=O)(=O)N2CCCCC2)cc1NC(=O)c1cncc(Br)c1 | inconclusive: 23.1 µM [inhibitor, single point] |  |
| COC(=O)c1cc(-c2c(C)nn(-c3ccccc3)c2C)n[nH]1 | inconclusive: 25.9 µM [inhibitor, single point] |  |
| Fc1ccc(-c2n[nH]c(=S)n2CC2CCCO2)cc1 (stereo not given) |  | inactive: -1.75% |
| CCOc1ccc(CCNC(=O)COc2cccc(-n3cnnn3)c2)cc1OCC | inconclusive: 29.1 µM [inhibitor, single point] |  |
| COc1cccc(OCCSc2nc3ccccc3n2CC(=O)N2CCCCC2)c1 | inconclusive: 20.6 µM [inhibitor, single point] |  |
| CC(C)(C)c1ccc(C(=O)N2CCC2(C)C(=O)Nc2ccc3[nH]ncc3c2)cc1 (stereo not given) | active: 14.6 µM |  |
| CCCCCCN1C[C@@H](n2cc(-c3ccc(F)cc3)nn2)[C@H](O)C[C@@H]1c1ccc(OC)cc1 | inconclusive: 23.1 µM [inhibitor, single point] |  |
| COc1cccc(-n2cc(C(=O)NCc3ccccc3OC)c3ccccc3c2=O)c1 | inconclusive: 29.1 µM [inhibitor, single point] |  |
| COc1ccc(-c2nc(CN3CCC(C(=O)NCCCOC(C)C)CC3)c(C)o2)cc1OC |  | inactive: -15.2% |
| COc1ccc(Cc2n[nH]c(=S)o2)cc1 |  | inactive: 0.522% |
| O=C(CN1CCN(Cc2ccccc2)CC1)NC(c1ccccc1)c1ccccc1 | active: 23.1 µM |  |
| CN(C)c1nc(SCc2ccccc2)nc(N2CCOCC2)n1 | inconclusive: 29.1 µM [inhibitor, single point] |  |
| CC(C)Cc1cc(C(=O)N2CCCC(CO)(Cc3ccc(F)cc3)C2)no1 (stereo not given) | inconclusive: 23.1 µM [inhibitor, single point] |  |
| C[C@H](O)[C@@H]1C(=O)N2CCc3c([nH]c4ccccc34)[C@@H]2C[C@@H]1N(C)C(=O)c1cc(Cl)cc(Cl)c1 | active: 18.4 µM |  |
| O=C(COC(=O)c1ccccc1)NCCCCc1ccccc1 | inconclusive: 25.9 µM [inhibitor, single point] |  |
| CC1(C)Cc2c(c(N3CCOCC3)nc3sc4c(NCCN)ncnc4c23)CO1 | inconclusive: 23.1 µM [inhibitor, single point] |  |

| SMILES | Potency | activity change, negative = growth inhibition |
| --- | --- | --- |
| Cn1c(O)c(N=NC(N)=S)c2ccccc21 | active: 5.31 µM |  |
| CCc1cc2c(cc3c(=O)n(CC(=O)NCCc4ccc(OC)c(OC)c4)ncn32)s1 |  | inactive: -0.928% |
| O=C(C[C@H]1C(=O)N(CCc2ccccc2)C[C@@H]1Cc1ccccc1)Nc1ccc(Br)cc1 | inconclusive: 29.1 µM [inhibitor, single point] |  |
| O=C(c1ccccc1)c1ccc2cc(O)ccc2c1 | inconclusive: 20.6 µM [inhibitor, partial curve] |  |
| CC(=O)Cn1c2ccccc2n2nc(CCC(=O)O)c(=O)nc12 |  | inactive: 0.368% |
| COc1ccc(C(=O)NNC(=O)c2cccs2)cc1S(=O)(=O)N1CCOCC1 |  | inactive: 4.07% |
| N#C/C(=C\c1ccc(OCc2ccccc2)cc1)C(N)=O | active: 23.1 µM |  |
| O=C1c2ccccc2C(=O)C1c1ccc(O)cc1 | inconclusive: 25.9 µM [inhibitor, single point] |  |
| Cc1ccc(NC(=O)C2CCN(S(=O)(=O)c3ccc4c(c3)OCCCO4)CC2)nc1 | inconclusive: 14.6 µM [inhibitor, partial curve, poor fit] |  |
| CC(C)(C)n1nc2c(c1NC(=O)C1CC(=O)N(c3ccc(Cl)cc3)C1)CS(=O)(=O)C2 (stereo not given) |  | inactive: -29.8% |
| COc1cc(OC)c(C2Nc3ccccc3-c3nnc(SCc4ccccc4)nc3O2)cc1OC (stereo not given) | inconclusive: 18.4 µM [inhibitor, single point] |  |
| CCc1cc2c(C)ccc(C)c2nc1SCC(=O)Nc1c(C)[nH]c(=O)[nH]c1=O | inconclusive: 25.9 µM [inhibitor, single point] |  |
| CC(C)[C@H](NC(=O)C1CCN(S(=O)(=O)c2ccc(F)cc2)CC1)C(=O)NCc1ccncc1 |  | inactive: 2.17% |
| Nc1ccc(-c2cc(-c3cccc(N)c3)nc(-c3ccccc3)n2)cc1 |  | inactive: -27.6% |
| O=C(c1ccccc1F)N1CCN(c2cccc(C(F)(F)F)c2)CC1 | active: 16.4 µM |  |
| Cn1c(=O)c2c(nc(NCc3ccccc3)n2CCCc2ccccc2)n(C)c1=O | active: 5.17 µM |  |
| Cc1ccc(S(=O)(=O)N(C)Cc2nc(-c3ccncc3)no2)cc1 | inconclusive: 25.9 µM [inhibitor, partial curve, poor fit] |  |
| CN(C)c1ccc(C2Nc3cccc4cccc(c34)N2)cc1 | active: 23.1 µM |  |
| O=C(C[n+]1cc(-c2ccccc2)n2c1CCCCC2)c1ccc(Cl)cc1 | active: 16.4 µM |  |
| O=C(CCn1ccc2cc(S(=O)(=O)N3CCCC3)ccc21)NCc1cccc(F)c1 | inconclusive: 2.59 µM [inhibitor, full curve] and inconclusive: 29.1 µM [inhibitor, single point] |  |
| Cc1sc(NC(=O)c2ccco2)c(C(c2ccncc2)N2CCOCC2)c1C (stereo not given) | inconclusive: 29.1 µM [inhibitor, single point] |  |
| Cc1cc(C)cc(-n2c(SCC(=O)Nc3cccc(S(=O)(=O)NC4=NCCCCC4)c3)nc3ccccc3c2=O)c1 | inconclusive: 29.1 µM [inhibitor, single point] |  |
